# Test results reported in the supplement of paper PMC8728848.
# The other results are listed elsewhere or left out.
# Assays:
# Assay in all cases: glycan array binding signal (z-score within array); higher = stronger binding
# Details in all cases: glycan notation: IUPAC condensed, linker removed
# Glc(b1-3)Glc = target: Glc(b1-3)Glc
# Outline: (§1)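 Glycan array data were curated from 3228 arrays in the Consortium for Functional Glycomics database and kept only where the protein sequence was available. Glycan names were converted to IUPAC-condensed notation, and columns mapping to the same glycan were averaged. The binding signal is a within-array Z-score, averaged across arrays of the same protein sequence at different concentrations or buffers and across linkers. Negative Z-scores can be read as non-binding.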
# Glc(b1-3)Glc(b1-3)Glc = target: Glc(b1-3)Glc(b1-3)Glc
# Outline: as §1
# [1] = target: Glc(b1-3)Glc(b1-3)Glc(b1-3)Glc
# Outline: as §1
# [2] = target: Glc(b1-3)Glc(b1-3)Glc(b1-3)Glc(b1-3)Glc
# Outline: as §1
# [3] = target: Glc(b1-3)Glc(b1-3)Glc(b1-3)Glc(b1-3)Glc(b1-3)Glc
# Outline: as §1
# [4] = target: Glc(b1-3)Glc(b1-3)Glc(b1-3)Glc(b1-3)Glc(b1-3)Glc(b1-3)Glc
# Outline: as §1
# [5] = target: Glc(b1-3)Glc(b1-3)Glc(b1-3)Glc(b1-3)Glc(b1-3)Glc(b1-3)Glc(b1-3)Glc
# Outline: as §1
# [6] = target: Glc(b1-3)Glc(b1-3)Glc(b1-3)Glc(b1-3)Glc(b1-3)Glc(b1-3)Glc(b1-3)Glc(b1-3)Glc
# Outline: as §1
# [7] = target: Glc(b1-3)Glc(b1-3)Glc(b1-3)Glc(b1-3)Glc(b1-3)Glc(b1-3)Glc(b1-3)Glc(b1-3)Glc(b1-3)Glc
# Outline: as §1
# [8] = target: Glc(b1-3)Glc(b1-3)Glc(b1-3)Glc(b1-3)Glc(b1-3)Glc(b1-3)Glc(b1-3)Glc(b1-3)Glc(b1-3)Glc(b1-3)Glc
# Outline: as §1
# [9] = target: Glc(b1-3)Glc(b1-3)Glc(b1-3)Glc(b1-3)Glc(b1-3)Glc(b1-3)Glc(b1-3)Glc(b1-3)Glc(b1-3)Glc(b1-3)Glc(b1-3)Glc
# Outline: as §1
# [10] = target: Glc(b1-3)Glc(b1-3)Glc(b1-3)Glc(b1-3)Glc(b1-3)Glc(b1-3)Glc(b1-3)Glc(b1-3)Glc(b1-3)Glc(b1-3)Glc(b1-3)Glc(b1-3)Glc
# Outline: as §1
# Glc(b1-4)Glc = target: Glc(b1-4)Glc
# Outline: as §1
# Glc(b1-4)Glc(b1-4)Glc = target: Glc(b1-4)Glc(b1-4)Glc
# Outline: as §1
# [11] = target: Glc(b1-4)Glc(b1-4)Glc(b1-4)Glc
# Outline: as §1
# [12] = target: Glc(b1-4)Glc(b1-4)Glc(b1-4)Glc(b1-4)Glc
# Outline: as §1
# [13] = target: Glc(b1-4)Glc(b1-4)Glc(b1-4)Glc(b1-4)Glc(b1-4)Glc
# Outline: as §1
# Glc(b1-6)Glc = target: Glc(b1-6)Glc
# Outline: as §1
# Glc(b1-6)Glc(b1-6)Glc = target: Glc(b1-6)Glc(b1-6)Glc
# Outline: as §1
# [14] = target: Glc(b1-6)Glc(b1-6)Glc(b1-6)Glc
# Outline: as §1
# [15] = target: Glc(b1-6)Glc(b1-6)Glc(b1-6)Glc(b1-6)Glc
# Outline: as §1
# [16] = target: Glc(b1-6)Glc(b1-6)Glc(b1-6)Glc(b1-6)Glc(b1-6)Glc
# Outline: as §1
# [17] = target: Glc(b1-6)Glc(b1-6)Glc(b1-6)Glc(b1-6)Glc(b1-6)Glc(b1-6)Glc
# Outline: as §1
# [18] = target: Glc(b1-6)Glc(b1-6)Glc(b1-6)Glc(b1-6)Glc(b1-6)Glc(b1-6)Glc(b1-6)Glc
# Outline: as §1
# [19] = target: Glc(b1-6)Glc(b1-6)Glc(b1-6)Glc(b1-6)Glc(b1-6)Glc(b1-6)Glc(b1-6)Glc(b1-6)Glc
# Outline: as §1
# [20] = target: Glc(b1-6)Glc(b1-6)Glc(b1-6)Glc(b1-6)Glc(b1-6)Glc(b1-6)Glc(b1-6)Glc(b1-6)Glc(b1-6)Glc
# Outline: as §1
# [21] = target: Glc(b1-6)Glc(b1-6)Glc(b1-6)Glc(b1-6)Glc(b1-6)Glc(b1-6)Glc(b1-6)Glc(b1-6)Glc(b1-6)Glc(b1-6)Glc
# Outline: as §1
# [22] = target: Glc(b1-6)Glc(b1-6)Glc(b1-6)Glc(b1-6)Glc(b1-6)Glc(b1-6)Glc(b1-6)Glc(b1-6)Glc(b1-6)Glc(b1-6)Glc(b1-6)Glc
# Outline: as §1
# GlcA(b1-3)Gal = target: GlcA(b1-3)Gal
# Outline: as §1
# GlcA(b1-3)Gal(b1-4)Glc = target: GlcA(b1-3)Gal(b1-4)Glc
# Outline: as §1
# [23] = target: GlcA(b1-3)Gal(b1-4)GlcNAc(b1-3)Gal(b1-4)Glc
# Outline: as §1
# [24] = target: GlcA(b1-3)Gal(b1-4)GlcNAc(b1-3)Gal(b1-4)GlcNAc(b1-3)Gal(b1-4)Glc
# Outline: as §1
# GlcA(b1-3)GlcNAc = target: GlcA(b1-3)GlcNAc
# Outline: as §1
# [25] = target: GlcA(b1-3)GlcNAc(b1-4)GlcA(b1-3)GlcNAc
# Outline: as §1
# [26] = target: GlcA(b1-3)GlcNAc(b1-4)GlcA(b1-3)GlcNAc(b1-4)GlcA(b1-3)GlcNAc(b1-4)GlcA(b1-3)GlcNAc(b1-4)GlcA(b1-3)GlcNAc(b1-4)GlcA(b1-3)GlcNAc(b1-4)GlcA(b1-3)GlcNAc
# Outline: as §1
# GlcA(b1-6)Gal = target: GlcA(b1-6)Gal
# Outline: as §1
# GlcA3S(b1-3)Gal = target: GlcA3S(b1-3)Gal
# Outline: as §1
# GlcA3S(b1-3)Gal(b1-4)Glc = target: GlcA3S(b1-3)Gal(b1-4)Glc
# Outline: as §1
# [27] = target: GlcA3S(b1-3)Gal(b1-4)GlcNAc(b1-2)Man
# Outline: as §1
# [28] = target: GlcA3S(b1-3)Gal(b1-4)GlcNAc(b1-3)Gal(b1-4)Glc
# Outline: as §1
# [29] = target: GlcA3S(b1-3)Gal(b1-4)GlcNAc(b1-3)Gal(b1-4)GlcNAc(b1-3)Gal(b1-4)Glc
# Outline: as §1
# [30] = target: GlcNAc(a1-3)Gal(b1-4)GlcNAc
# Outline: as §1
# GlcNAc(a1-4)Gal = target: GlcNAc(a1-4)Gal
# Outline: as §1
# [31] = target: GlcNAc(a1-4)Gal(b1-3)GlcNAc
# Outline: as §1
# [32] = target: GlcNAc(a1-4)Gal(b1-3)[Fuc(a1-2)]Gal
# Outline: as §1
binder,measurement,setting,value
"CLEC5A (Homo sapiens), Q9NY25 (protein) MNWHMIISGLIVVVLKVVGMTLFLLYFPQIFNKSNDGFTTTRSYGTVSQIFGSSSPSPNGFITTRSYGTVCPKDWEFYQARCFFLSTSESSWNESRDFCKGKGSTLAIVNTPEKLKFLQDITDAEKYFIGLIYHREEKRWRWINNSVFNGNVTNQNQNFNCATIGLTKTFDAASCDISYRRICEKNAK",glycan array binding signal (z-score),Glc(b1-3)Glc,-0.32
same,glycan array binding signal (z-score),Glc(b1-3)Glc(b1-3)Glc,1.13
same,glycan array binding signal (z-score),[1],-0.32
same,glycan array binding signal (z-score),[2],6.52
same,glycan array binding signal (z-score),[3],-0.32
same,glycan array binding signal (z-score),[4],1.8
same,glycan array binding signal (z-score),[5],0.644
same,glycan array binding signal (z-score),[6],-0.32
same,glycan array binding signal (z-score),[7],-0.32
same,glycan array binding signal (z-score),[8],-0.32
same,glycan array binding signal (z-score),[9],1.32
same,glycan array binding signal (z-score),[10],-0.32
same,glycan array binding signal (z-score),Glc(b1-4)Glc,-0.371
same,glycan array binding signal (z-score),Glc(b1-4)Glc(b1-4)Glc,-0.32
same,glycan array binding signal (z-score),[11],0.837
same,glycan array binding signal (z-score),[12],-0.32
same,glycan array binding signal (z-score),[13],0.74
same,glycan array binding signal (z-score),Glc(b1-6)Glc,0.044
same,glycan array binding signal (z-score),Glc(b1-6)Glc(b1-6)Glc,0.355
same,glycan array binding signal (z-score),[14],1.42
same,glycan array binding signal (z-score),[15],0.644
same,glycan array binding signal (z-score),[16],-0.32
same,glycan array binding signal (z-score),[17],0.548
same,glycan array binding signal (z-score),[18],-0.32
same,glycan array binding signal (z-score),[19],-0.32
same,glycan array binding signal (z-score),[20],1.13
same,glycan array binding signal (z-score),[21],1.61
same,glycan array binding signal (z-score),[22],1.8
same,glycan array binding signal (z-score),GlcA(b1-3)Gal,-0.34
same,glycan array binding signal (z-score),GlcA(b1-3)Gal(b1-4)Glc,-0.32
same,glycan array binding signal (z-score),[23],-0.32
same,glycan array binding signal (z-score),[24],-0.32
same,glycan array binding signal (z-score),GlcA(b1-3)GlcNAc,-0.247
same,glycan array binding signal (z-score),[25],-0.32
same,glycan array binding signal (z-score),[26],-0.32
same,glycan array binding signal (z-score),GlcA(b1-6)Gal,-0.415
same,glycan array binding signal (z-score),GlcA3S(b1-3)Gal,-0.32
same,glycan array binding signal (z-score),GlcA3S(b1-3)Gal(b1-4)Glc,-0.32
same,glycan array binding signal (z-score),[27],-0.221
same,glycan array binding signal (z-score),[28],-0.074
same,glycan array binding signal (z-score),[29],-0.32
same,glycan array binding signal (z-score),[30],-0.053
same,glycan array binding signal (z-score),GlcNAc(a1-4)Gal,0.74
same,glycan array binding signal (z-score),[31],-0.421
same,glycan array binding signal (z-score),[32],-0.32
